Hit rate of the full screen: of about 310,000 compounds, about 14,000 (4.5%) showed an effect of 50% or more. The effect is printed as a negative number. This is one part of the list.
The compounds below were run against human ether-à-go-go-related gene (hERG) potassium channel (human, UniProt Q12809) (assay: primary screen, population patch clamp on CHO cells stably expressing hERG).
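Further: peak tail current of the secondary pulse compared with the same well before compound.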

human ether-à-go-go-related gene (hERG) potassium channel, sequence (Q12809 whole entry, looked up): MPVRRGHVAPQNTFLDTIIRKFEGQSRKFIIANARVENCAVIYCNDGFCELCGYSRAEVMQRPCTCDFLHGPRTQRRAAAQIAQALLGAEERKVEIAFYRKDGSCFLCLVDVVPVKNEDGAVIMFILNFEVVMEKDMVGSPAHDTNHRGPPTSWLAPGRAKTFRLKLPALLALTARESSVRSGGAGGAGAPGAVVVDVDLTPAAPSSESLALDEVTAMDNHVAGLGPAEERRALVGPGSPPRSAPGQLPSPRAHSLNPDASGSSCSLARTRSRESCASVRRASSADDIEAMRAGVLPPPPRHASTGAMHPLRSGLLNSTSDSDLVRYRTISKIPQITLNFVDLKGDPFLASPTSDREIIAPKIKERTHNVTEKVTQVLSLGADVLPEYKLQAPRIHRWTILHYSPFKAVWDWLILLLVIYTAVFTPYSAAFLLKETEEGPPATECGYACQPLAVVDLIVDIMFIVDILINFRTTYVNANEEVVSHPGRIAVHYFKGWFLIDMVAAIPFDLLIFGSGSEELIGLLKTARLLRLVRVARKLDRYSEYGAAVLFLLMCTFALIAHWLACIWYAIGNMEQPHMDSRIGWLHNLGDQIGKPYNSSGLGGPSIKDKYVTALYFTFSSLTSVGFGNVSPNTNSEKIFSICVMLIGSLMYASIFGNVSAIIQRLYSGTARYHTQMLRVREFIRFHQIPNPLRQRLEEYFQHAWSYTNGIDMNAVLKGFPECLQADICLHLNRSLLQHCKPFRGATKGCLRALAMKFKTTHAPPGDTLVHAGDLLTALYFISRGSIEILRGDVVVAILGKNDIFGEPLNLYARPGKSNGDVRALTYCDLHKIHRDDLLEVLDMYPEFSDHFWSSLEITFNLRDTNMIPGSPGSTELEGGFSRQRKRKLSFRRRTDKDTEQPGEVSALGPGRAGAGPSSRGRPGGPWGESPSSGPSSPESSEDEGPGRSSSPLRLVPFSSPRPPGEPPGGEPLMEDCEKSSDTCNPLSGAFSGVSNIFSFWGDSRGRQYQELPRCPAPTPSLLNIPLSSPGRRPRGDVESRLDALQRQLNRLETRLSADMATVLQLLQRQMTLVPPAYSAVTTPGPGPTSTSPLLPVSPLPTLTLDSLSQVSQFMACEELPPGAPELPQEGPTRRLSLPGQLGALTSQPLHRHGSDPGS

| Compound | hERG current change (%, negative = inhibition) at 10uM |
| --- | --- |
| Cc1csc(NC(=O)CSc2nc(C(C)C)nc3ccccc23)n1 | 9.99% |
| COc1cc(NC(=O)c2ccc(Cl)cc2)c(Cl)cc1NC(=O)c1cccnc1 | 1.74% |
| N#CC(c1ccc(Cl)nn1)c1c(F)cccc1Cl (centres unmarked) | 9.59% |
| CCCN1C2CCCC1CC(NC(=O)c1ccccc1Br)C2 (centres unmarked) | -27% |
| NC(=O)C1CC(=O)N(c2ccc(OCc3ccccc3Cl)cc2)C1 (centres unmarked) | -6.43% |
| COc1ccc(C2CC(c3ccc(Br)cc3)=NN2C(=O)c2cccnc2)cc1 (centres unmarked) | -30.6% |
| COc1ccc2c(c1)c1nc3n(c(=O)c1n2CC(=O)Nc1ccccc1)CCCS3 | 31.5% |
| Cc1cccc(C(=O)NC2=NCCS2)c1 | 8.03% |
| Cc1ccc(NC(=O)CCNS(=O)(=O)c2ccc3c(c2)CCC(=O)N3)c(Br)c1 | -20.5% |
| Cc1ccc(-c2nn(-c3ccccc3)cc2/C=C/C(=O)Nc2cccc(S(N)(=O)=O)c2)cc1 | 9.23% |
| COc1ccc(OC)c(Nc2ncnc3ccccc23)c1.Cl | -18.6% |
| COc1ccc(NC(=O)CCC(=O)OCc2ccc(C(=O)Oc3ccc(Cl)cc3)cc2)cc1 | 0.558% |
| O=C(CN1C(=O)/C(=C\c2cccc(Br)c2)Oc2ccccc21)NCCCN1CCOCC1 | -15.6% |
| CCN(CC)S(=O)(=O)c1ccc(OC)c(NC(=S)Nc2cc(C)ccc2C)c1 | -6.34% |
| O=S(=O)(Nc1ccc(S(=O)(=O)Nc2nccs2)cc1)c1ccc2c(c1)OCCO2 | -19.2% |
| O=C(CSc1nnc(CNC(=O)c2c(F)cccc2Cl)o1)c1ccccc1 | -21.5% |
| S=C(Nc1ccc(Cl)c(Cl)c1)N1CCN(c2ccccn2)CC1 | 13.8% |
| Cc1cc(-c2ccco2)n2c(nc3ccccc32)c1C#N | -25.9% |
| COc1ccccc1-c1nnc(N)s1 | 12% |

| Compound | hERG current change (%, negative = inhibition) at 10uM |
| --- | --- |
| CNC(=S)NNC(=O)c1cccn(Cc2ccc(Cl)c(Cl)c2)c1=O | -18.6% |
| CCOC(=O)C1CCCN(C(=O)c2cccc(N3C(=O)c4ccccc4C3=O)c2)C1 (centres unmarked) | -18.4% |
| CN(C)CCN=Cc1c(O)n(-c2cccc3ccccc23)c(=O)[nH]c1=O | 10.4% |
| CC(C)C(C(=O)NCC1CCCO1)N(Cc1ccccc1)C(=O)CNS(=O)(=O)c1ccccc1 (centres unmarked) | 18.4% |
| COc1cc(CNc2ccc3[nH]c(=O)[nH]c3c2)ccc1OCc1ccccc1 | 9.59% |
| Oc1ccc(-c2nnc(Nc3ccccc3)c3ccccc23)cc1 | -58.9% |
| COc1ccc2nc(Nc3nc4ccc(NC(C)=O)cc4s3)sc2c1 | 12.3% |
| Cc1ccc(C(=O)O/N=C(\N)c2ccccn2)cc1C | -1.05% |
| CCOc1cc(NC(=S)Nc2ccccc2)c(OCC)cc1NC(=O)c1ccccc1 | -0.843% |
| O=S(=O)(NCc1csc(-c2ccccc2)n1)c1ccc(Cl)s1 | 5.47% |
| Cc1ccc(-n2cc(CN3CCNC(=O)CC3)c(-c3cccc(C)c3)n2)cc1 | -0.817% |
| CC(=O)Cc1ccc(OC(C)C)cc1 | 2.76% |
| COc1ccc(C2C(C(C)=O)=C(O)C(=O)N2c2nccs2)cc1 (centres unmarked) | -2.27% |
| CCCCCCCCCn1cc(C(C)=O)c(=O)[nH]c1=O | 4.68% |
| Cc1ccc(C(C)C)c(OCC(=O)Nc2ccccc2N2CCN(C)CC2)c1 | -40.5% |
| COc1ccccc1CNC(=O)C(C)Oc1ccccc1 (centres unmarked) | -29.1% |
| CC1(C)Cc2c(C#N)c(N3CCN(C(=O)c4ccco4)CC3)nc(-c3ccco3)c2CS1 | -21.6% |
| COCCNC(=O)CCCn1c(=O)c2ccccc2n(Cc2ccccc2C#N)c1=O | 8.92% |
| CC(Oc1ccccc1)C(=O)N1CCc2ccccc2C1 (centres unmarked) | 6.25% |

| Compound | hERG current change (%, negative = inhibition) at 10uM |
| --- | --- |
| O=C(Nc1ccc(F)cc1F)c1sccc1SCc1cccc(C(F)(F)F)c1 | -4.52% |
| CCN(CC(=O)Nc1c(F)cccc1F)C(=O)c1cccnc1SC | 6.33% |
| O=S(=O)(NCc1ccccc1F)NCc1ccccc1F | 12.4% |
| Cc1cc(=O)[nH]c(N/N=C/c2ccccc2C(F)(F)F)n1 | 22.8% |
| CCOc1ccc(N2C(=O)CC(N3CCN(c4ccc([N+](=O)[O-])cc4)CC3)C2=O)cc1 (centres unmarked) | -28.3% |
| Cc1ccccc1C(=O)Nn1cnc2ccccc2c1=O | 28.6% |
| Cc1onc(-c2ccccc2)c1C(=O)NCC1CCCO1 (centres unmarked) | 17.5% |
| Cc1c(NC(=O)CSC2=C(C#N)C(c3ccccc3F)CC(=O)N2)c(=O)n(-c2ccccc2)n1C (centres unmarked) | 8.04% |
| CC(C(=O)NC(=O)NC1CCCCC1)N(C)CC(=O)Nc1ccc(F)c(F)c1F (centres unmarked) | -6.11% |
| COc1ccccc1C(=O)N1CCN(Cc2cn[nH]c2-c2ccc(F)cc2F)CC1 | -6.87% |
| CC12CCC(C(=O)NCc3ccc(Cl)cc3)(OC1=O)C2(C)C (centres unmarked) | -4.36% |
| CN(Cc1ccccc1)C1(CNC(=O)CCC(F)(F)F)Cc2ccccc2C1 | 4.95% |
| NC(=O)CSc1nnc(COc2ccccc2)n1N | 6.84% |
| CNC(=S)Nc1cc(OC)ccc1OC | 2.43% |
| O=C(NCCCN1CCCC1=O)C1CCN(S(=O)(=O)c2ccccc2)CC1 | 9.71% |
| CCCCn1c(N)c(N(Cc2ccccc2OC)C(=O)COc2ccc(F)cc2Cl)c(=O)[nH]c1=O | 16.1% |
| CCOCCCN(C(=O)CCC(=O)Nc1cc(C)on1)C(C(=O)NC(C)(C)C)c1ccccc1Cl (centres unmarked) | 11.2% |
| COc1ccccc1CNC(=O)C(CCSC)NS(=O)(=O)c1ccc2c(c1)oc(=O)n2C (centres unmarked) | 17% |

Reference: paper PMC4336329 (PLoS ONE, 2015)
